From ChEMBL document CHEMBL4888484, “Replenishing the malaria drug discovery pipeline: Screening and hit evaluation of the MMV Hit Generation Library 1 (HGL1) against asexual blood stage Plasmodium falciparum ,using a nano luciferase reporter read-out” (2022) come the findings set out here.

SMILES strings stand for the structures. The whole screen tested about 150,000 compounds, of which about 540 (0.36%) showed an effect of 50% or more. This is one part of the list.

This experiment relates to Plasmodium falciparum. Put plainly: Primary screen in NF54 nanoGlo assay, in single point, at 2uM, 72h; a lower Z score goes with more inhibition. Type of experiment: functional, Erythrocyte. The following applies: timepoint 72 hour.
As for `Cc1ccc(C(C)(C)CN(C)C(=O)c2nc(C)c(C)[nH]c2=O)cc1`, the % Inhibition (in general, the relative decrease from the control value, in per cent) is reported as -7% and the Z score is 1.31.
With `COc1ccc(C(C)(C)C(=O)N2CCCC2C2CCCCC2O)cc1` (stereo not drawn), the “% Inhibition” value was 0% and the Z score is -0.04.
Consider `CC(C)C(=O)NCCCNC(=O)NCC1C2CCc3ccccc3C21` (stereo not drawn), for which the “% Inhibition” value is -4% and the Z score is 0.5.
Regarding `COc1ccc(NC(=O)N2CC(n3nc(C)nc3C)C2)cc1`, the “% Inhibition” value is on record as 3% and the Z score is -0.47.
For `O=C(Cn1ccccc1=O)Nc1cccc(N2CCCC2=O)c1`, in that order: -16% and 1.91.
As to `CCOc1cccc(Cn2cc(Br)ccc2=O)n1`, the “% Inhibition” value was 33% and the Z score is -4.39.
Turning to `CCc1ncnc(O[C@H]2CCN(C(=O)Cn3cnc4ccccc4c3=O)C2)c1F`, the “% Inhibition” value is reported as -4% and the Z score was found to be 0.62.
For the compound `Cc1ccc(-c2cn[nH]c2[C@H]2CCCN(C(=O)c3ccccc3C#N)C2)cc1`, the “% Inhibition” value is reported as -3% and the Z score was 0.53.
With `Cc1nnc(CS(=O)(=O)[C@@H](C)c2c(F)cccc2F)n1C`, the “% Inhibition” value turned out to be 1% and the Z score was -0.09.
As to `CC(C)N1CCC(CC(=O)N2CCCC[C@@H]2CCn2ccnc2)CC1`, the “% Inhibition” value was -2% and the Z score amounted to 0.42.
For the compound `CCCN(C)S(=O)(=O)NC(=O)C1CC=CC1`, the “% Inhibition” value is recorded as -10% and the Z score is 1.03.
For the compound `COc1ccccc1CC(=O)N1CC[C@H](c2nc3ccncc3n2C(C)C)C1`, the “% Inhibition” value is recorded as -13% and the Z score is given as 1.32.
As for `CN(CCc1ncnn1-c1ccc2c(c1)OCCO2)[C@H]1CCS(=O)(=O)C1`, the “% Inhibition” value is -13% and the Z score was 1.26.
Taken in the same sequence, the figures for `Cn1ccc(-c2nnc(NC(=O)C3CCCCC3)o2)n1` were -10% and 1.57.
As for `Cc1cc(F)cc(NC(=O)NCCCN2CCCN(C)CC2)c1`, the “% Inhibition” value is -3% and the Z score was determined as 0.5.
Regarding `Cc1cc(NC(=O)COc2ccc3c(n2)CCC3)n(C)n1`, the “% Inhibition” value is -6% and the Z score came out at 1.15.
For `COCc1nc(-c2scc3c2CCCC3)n(CCO)n1`, the “% Inhibition” value stood at 5% and the Z score is -0.43.
Taken in the same sequence, the figures for `CCN(C(=O)c1cn(CC(F)F)nc1C)[C@H]1CCNC1=O` were -6% and 0.63.
With `CC(C)c1noc(N2CC(C(N)=O)CCC2C)n1` (stereo not drawn), the “% Inhibition” value is listed as -6% and the Z score was found to be 0.64.
For `Cc1ccc(CCC(=O)NCCCc2cccnc2)cc1C`, the “% Inhibition” value was -13% and the Z score was 1.37.
For `CCn1c(CN2CC(N3CCNC3=O)C2)nc2ccccc21`, in that order: -3% and 0.59.
With `CCN1C[C@H](CN(C)C(=O)c2ccc(OC)c(F)c2)Oc2ccccc21`, the “% Inhibition” value is -11% and the Z score is reported as 1.6.
As to `Cc1ccc(Cn2cccc2C(=O)C(=O)Nc2ccc(F)cc2Cl)cc1`, the “% Inhibition” value was -8% and the Z score was found to be 0.74.
Consider `CC[C@@H]1Oc2ccc(NS(=O)(=O)c3cccc(Cl)c3)cc2CN(Cc2ccccc2)C1=O`, for which the “% Inhibition” value is on record as -10% and the Z score turned out to be 1.27.
